Test results published in PubChem BioAssay AID504466 (National Center for Advancing Translational Sciences (NCATS), 2011).
The whole screen tested about 330,000 compounds, of which about 4,200 (1.3%) were called active. Inconclusive means that the source gave no clear call. Such entries were picked first, then a sample of the others. Calls come from the whole dose curve; as a rule, active = well fitted activation curve with a large enough effect; inconclusive = small, poorly fitted or top-dose-only effect; inactive = no such curve, though single readings can be large or run the other way. Potencies beside an inconclusive call are fits to weak or partial responses and may not hold up.

Experiment: qHTS screen for small molecules that induce genotoxicity in human embryonic kidney (HEK293T) cells expressing luciferase-tagged ELG1; note: nearly all actives have a fitted effect of over 60% in size
Details: HEK293T ELG1-luciferase reporter, luminescence, 16 h; series mostly up to 46 µM
Outline: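 Reporter readout depends on ELG1 protein level, which increases with genetic stress. After 16 hr compound exposure at 37 °C, luciferase activity was quantified using ONE-Glo.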
Potency is the fitted concentration of half-maximal effect; tags give direction and shape of the fitted curve.

SMILES | Potency
CC(C)(C)c1csc(NC(=O)c2ccncc2)n1 | inactive
Cc1ccc(-n2nc3cc(C)c(NC(=S)NC(=O)/C=C/c4ccco4)cc3n2)cc1 | active: 8.2 µM
CCN1CCN(C(=O)NC2CC(=O)N(c3ccc(OC)cc3)C2)CC1 (centres undefined) | inactive
COC(=O)c1cnc(SCc2ccc(Cl)cc2)n1C | inactive
Cc1c(NC(=O)c2cccc(NC(=O)c3ccco3)c2)cccc1C(=O)O | inactive
Cc1cccc(NC(=O)c2cnc3ccccn3c2=O)c1 | active: 0.411 µM
CCCCC(=O)NC(c1ccc(C(C)C)cc1)c1ccc2cccnc2c1O (centres undefined) | inconclusive: 25.9 µM [activator, single point]
Cc1ccc(CSc2nnc(-c3ccccn3)n2C)cc1 | inconclusive: 20.6 µM [activator, partial curve, poor fit]
CC1CCCN(c2nc3ccsc3c(=O)s2)C1 (centres undefined) | active: 13 µM
Cc1ccc(S(=O)(=O)Nc2ccccc2N2CCCCC2)cc1 | inactive
CCOC(=O)C1(Cc2ccc(Cl)cc2)CCN(C(=O)C2=NNC(=O)CC2)CC1 | inconclusive: 18.3 µM [activator, single point]
CCCCn1c(SCC(N)=O)nnc1-c1cc(OC)c(OC)c(OC)c1 | inconclusive: 29.1 µM [activator, partial curve, poor fit]
CC(C)Oc1ccc(C(=O)OCC(=O)c2ccc[nH]2)cc1 | inconclusive: 14.6 µM [activator, partial curve]
CCN(CC)c1ccc(/C=C2\SC(N)=NC2=O)cc1 | inconclusive: 23.1 µM [activator, partial curve, poor fit]
Cc1cc(NS(=O)(=O)c2ccc(NC(=O)C(C)Oc3cc(C)c(Cl)c(C)c3)cc2)no1 (centres undefined) | inconclusive: 23.1 µM [activator, partial curve, poor fit]
CC(=O)Nc1ccc(S(=O)(=O)N2CCC(C(=O)NCc3ccncc3)CC2)cc1 | inactive
Cc1cc2cc(OCc3ccccc3)ccc2n1C | inconclusive: 3.98 µM [activator, partial curve]
CCCc1ccc(-c2cc(C(=O)NC3=NCCS3)c3ccccc3n2)cc1 | inconclusive: 2.59 µM [activator, partial curve, poor fit]
CC(C)Nc1ncnc2c1cnn2-c1ccc(Cl)cc1 | active: 0.366 µM
C/C=C/c1ccc(OCC(=O)NNC(=O)CN(C)S(=O)(=O)c2ccc(C)cc2)c(OC)c1 | inactive
COc1ccc(OC)c(/C=C/c2ccc3cccc(O)c3n2)c1 | inconclusive: 29.1 µM [activator, single point]
Cc1ccc2oc(C(=O)N(C)Cc3cnccn3)c(C)c2c1 | inconclusive: 20.6 µM [activator, single point]
Clc1ccc(-c2nc(NCCCN3CCOCC3)c3ccccc3n2)cc1 | inactive
CCCn1c(SCC(=O)Nc2ccc(S(=O)(=O)N(C)C)cc2)n[nH]c1=O | inactive
CCOC(=O)c1cccc(NC(=O)CCc2nnc3ccc(N4CCCCC4)nn23)c1 | inactive

SMILES | Potency
CC(C)(C)c1ccc(C(=O)Nc2ccc(F)cc2)s1 | active: 2.91 µM
COc1ccc(/C=N/NC(=O)c2cccnc2)cc1COc1ccc(NC(C)=O)cc1 | inconclusive: 32.6 µM [activator, partial curve, poor fit]
CCC(CC)NC(=O)/C=C/c1ccccc1Cl | inactive
CCCNc1nc2c(c(=O)n(C)c(=O)n2C)n1Cc1ccc(F)cc1 | inconclusive: 32.6 µM [activator, partial curve, poor fit]
O=C(Nc1nnc(C2CC2)s1)C1COc2ccccc2O1 (centres undefined) | active: 4.11 µM
O=C(OCC(=O)N1CCCCC1)c1c[nH]c2ccccc12 | inconclusive: 20.6 µM [activator, partial curve, poor fit]
Cc1ccc(OCC(=O)Nc2nnn(C)n2)c(C)c1 | inconclusive: 25.9 µM [activator, partial curve, poor fit]
COc1cc(/C=C(\C#N)C(=O)Nc2cccc(C(=O)O)c2)ccc1OCc1ccc(Cl)cc1 | inconclusive: 3.66 µM [activator, full curve]
CCCOc1ccc(/C=C/C(=O)N2CCOCC2)cc1 | inconclusive: 20.6 µM [activator, partial curve]
O=c1[nH]c(NC2CCCCC2)c([N+](=O)[O-])c(=O)[nH]1 | inactive
COc1ccc(CCNC(=S)NCc2cccs2)cc1OC | inactive
Cc1cc(C)cc(C(=O)Nc2ccc(NC(=O)Cc3ccccc3)cc2)c1 | inconclusive: 29.1 µM [activator, single point]
Cc1ccc(C(=O)O/N=C(\N)c2ccc(Br)cc2)cc1C | active: 16.4 µM
COc1ccc(C(=O)CN2C(=O)c3ccccc3C2=O)c(OC)c1 | inconclusive: 23.1 µM [activator, partial curve]
COC(=O)c1sc(NC(=O)c2oc3ccccc3c2C)nc1C | active: 2.31 µM
O/N=C\c1cnc(N2CCN(c3ccccc3)CC2)s1 | inconclusive: 20.6 µM [activator, single point]
c1ccc(Nc2nnc(-c3cccnc3)s2)cc1 | inconclusive: 2.91 µM [activator, partial curve]
Nc1nnc(SCc2cn3cc(Cl)ccc3n2)s1 | inconclusive: 23.1 µM [activator, single point]
c1ccn2cc(-c3ccc4c(c3)OCCO4)nc2c1 | active: 0.291 µM
Cc1cccnc1NC(=O)c1cccc(S(=O)(=O)N2CCN(c3ccccc3)CC2)c1 | inconclusive: 29.1 µM [activator, partial curve, poor fit]
Nc1c(C(=O)c2cccs2)sc2nsc(SCCN3CCCCC3)c12 | inconclusive: 20.6 µM [activator, partial curve, poor fit]
CCN(CC)S(=O)(=O)c1ccc(N/N=C/c2cc(OC)ccc2O)nc1 | inconclusive: 13 µM [activator, partial curve, poor fit]
CC(=O)Oc1ccc(C)cc1-n1nc2ccccc2n1 | inconclusive: 9.2 µM [activator, partial curve]
COc1ccc(CN=C(C)c2c(C(F)(F)F)[nH]n(-c3nc4ccccc4s3)c2=O)cc1 | active: 14.6 µM
CCCC(=O)Nc1ccc(Cl)c(NC(=O)c2cccc(OC)c2)c1 | inactive

SMILES | Potency
Nc1cccc(C(=O)Nc2ccccc2Cl)c1 | inconclusive: 32.6 µM [activator, partial curve, poor fit]
COc1cccc(-c2noc(-c3cccnc3)n2)c1 | inconclusive: 4.11 µM [activator, full curve]
Cn1c(N=NC(=O)c2ccccc2)c(O)c2ccccc21 | inconclusive: 2.06 µM [activator, full curve]
Cc1[nH]c2ccccc2c1/C=N/Nc1ccc(F)cc1F | inconclusive: 25.9 µM [activator, partial curve, poor fit]
CCOc1ccccc1OC(C)C(=O)Nc1ccc(S(=O)(=O)N2CCCC2)cc1 (centres undefined) | inactive
Cc1ccnc(NC(=O)C2CC(=O)N(c3ccc4c(c3)OCCO4)C2)c1 (centres undefined) | active: 0.517 µM
CCC(=O)C1CCCN(C(=O)c2ccc3nc(-c4cccc(OC)c4)oc3c2)C1 (centres undefined) | inconclusive: 2.59 µM [activator, single point]
Cn1c2ccccc2c(=O)c2cc(NCCCN3CCOCC3)ccc21 | inconclusive: 13 µM [activator, partial curve]
COc1ccc(OC)c(S(=O)(=O)N/N=C\c2ccc3c(c2)OCO3)c1 | inconclusive: 16.4 µM [activator, partial curve, poor fit]
COc1ccc(-c2noc(CCCC(=O)N3CCN(c4cc(C)ccc4C)CC3)n2)cc1 | inactive
COc1cccc(-n2cc(-c3ccc(F)cc3)[nH]c2=S)c1 | inconclusive: 1.64 µM [activator, full curve]
Cc1cc(Oc2ccccc2)nc(N2CCOCC2)n1 | inconclusive: 18.4 µM [activator, partial curve, poor fit]
N=C(N)SCc1nc2ccccc2c(=O)n1-c1ccccc1Cl | inconclusive: 16.4 µM [activator, partial curve, poor fit]
Cc1ccc(-c2cc(C(=O)Nc3cc(C)on3)c3ccccc3n2)cc1 | inactive
O=C(OCc1csc(-c2ccccc2)n1)c1cccs1 | inconclusive: 18.4 µM [activator, partial curve]
O=C(CNc1ccccc1)Nc1ccc(F)cc1 | inconclusive: 16.4 µM [activator, partial curve, poor fit]
O=C(/C=C/c1ccc(OCCCF)cc1)Nc1ccnc(-c2ccncc2)n1 | inactive
COc1ccccc1CC(=O)Nc1cccc2c1CCCC2 | inactive
O=C(Nc1ccc(NC(=O)c2ccco2)c(Cl)c1)c1ccccc1 | inconclusive: 18.3 µM [activator, single point]
COc1cccc(COCC(O)CN2CCC(C(N)=O)CC2)c1 (centres undefined) | inactive
CCN1C(=O)c2cccc3c(NC(=O)c4ccc(OC)c(OC)c4)ccc1c23 | active: 14.6 µM
CC(=O)OCCCN1c2ccccc2Nc2nnc(-c3ccccc3)cc21 | inconclusive: 1.64 µM [activator, full curve, poor fit]
COc1cccc(NC(C)=[N+](C)CCNS(=O)(=O)c2ccc(Cl)cc2)c1 | inconclusive: 29.1 µM [activator, single point]
CCOC(=O)C(C)Oc1cccc2c(=O)n(CC(=O)NCc3ccc(F)cc3)ccc12 (centres undefined) | inconclusive: 9.2 µM [activator, partial curve, poor fit]
